Experimental data reported in a compilation of properties of binary mixtures (doi:10.1021/je5008857).
Some of these densities may be calculated back from excess volumes.

Experiment: xn = mol fraction of the nth substance listed
Conditions: 101 kPa

CC(=O)[O-].CC[n+]1ccn(C)c1 + N#C[S-].[Na+]
x2 = 0
Conditions | mass density [kg/m3]
298.15 K | 1098.3
308.15 K | 1092.4
318.15 K | 1086.4
323.15 K | 1083.4

CC(=O)[O-].[NH4+] + CC(=O)[O-].CC[n+]1ccn(C)c1
mass density [kg/m3]
Conditions | 298.15 K | 303.15 K | 308.15 K | 313.15 K | 318.15 K | 323.15 K
x1 = 0.0503 | 1098.3 | 1095.2 | 1092.1 | 1089.1 | 1086 | 1082.9
x1 = 0.0999 | 1099.1 | 1096 | 1092.9 | – | 1086.7 | 1083.5
x1 = 0.1703 | 1100.1 | 1097 | 1093.9 | – | 1087.6 | 1084.5
x1 = 0.2498 | 1100.9 | 1097.7 | 1094.6 | 1091.5 | – | 1085.2
x1 = 0.328 | 1101.5 | 1098.3 | – | – | – | 1085.7
x1 = 0.4491 | – | 1098.9 | – | 1092.4 | 1089.2 | 1086.2

CC(=O)[O-].[Na+] + CC(=O)[O-].CC[n+]1ccn(C)c1
mass density [kg/m3]
Conditions | 298.15 K | 303.15 K | 308.15 K | 313.15 K | 318.15 K | 323.15 K
x1 = 0.0501 | 1104.5 | 1101.4 | 1098.3 | 1095.5 | 1092.5 | 1089.4
x1 = 0.1001 | 1111.2 | – | 1105 | 1102.1 | 1099.1 | 1096.1
x1 = 0.1605 | 1119.6 | 1116.4 | 1113.3 | 1110.2 | 1107.2 | 1104.1

CC(=O)[O-].CC[n+]1ccn(C)c1 + CCS(=O)(=O)[O-].[NH4+]
x2 = 0
Conditions | mass density [kg/m3]
298.15 K | 1098.3
308.15 K | 1092.4
313.15 K | 1089.4
323.15 K | 1083.4

CC(=O)[O-].CC[n+]1ccn(C)c1 + [Cl-].[NH4+]
x2 = 0
Conditions | mass density [kg/m3]
298.15 K | 1098.3
303.15 K | 1095.2
313.15 K | 1089.4
323.15 K | 1083.4

CC(=O)[O-].CC[n+]1ccn(C)c1 + CC(=O)[O-].[Na+]
x2 = 0
Conditions | mass density [kg/m3]
298.15 K | 1098.3
303.15 K | 1095.2
308.15 K | 1092.4
313.15 K | 1089.4
318.15 K | 1086.4
323.15 K | 1083.4

[Cl-].[NH4+] + CC(=O)[O-].CC[n+]1ccn(C)c1
mass density [kg/m3]
Conditions | 298.15 K | 303.15 K | 308.15 K | 313.15 K | 318.15 K | 323.15 K
x1 = 0.0505 | – | – | 1095.1 | 1092 | – | –
x1 = 0.0999 | 1104 | 1100.8 | 1097.8 | – | 1091.7 | 1088.7
x1 = 0.1702 | 1108.3 | 1105.2 | 1102 | – | 1095.8 | 1092.7
x1 = 0.25 | 1113.4 | 1110.2 | 1107.1 | 1104 | 1100.8 | 1097.7
x1 = 0.3297 | 1118.4 | 1115.3 | 1112.2 | 1109 | 1105.9 | 1102.8

CCS(=O)(=O)[O-].[NH4+] + CC(=O)[O-].CC[n+]1ccn(C)c1
mass density [kg/m3]
Conditions | 298.15 K | 303.15 K | 308.15 K | 313.15 K | 318.15 K | 323.15 K
x1 = 0.05 | 1105 | 1101.8 | 1098.7 | 1095.6 | – | 1089.4
x1 = 0.0999 | 1113.7 | 1110.5 | 1107.3 | 1104.2 | 1101 | –
x1 = 0.1701 | 1124.1 | 1120.8 | 1117.6 | – | 1111.2 | –

N#C[S-].[Na+] + CC(=O)[O-].CC[n+]1ccn(C)c1
x1 = 0.0502
Conditions | mass density [kg/m3]
298.15 K | 1105.7
303.15 K | 1102.6
308.15 K | 1099.5
313.15 K | 1096.5
318.15 K | 1093.5
323.15 K | 1090.4

CC(=O)[O-].CC[n+]1ccn(C)c1 + CC(=O)[O-].[NH4+]
x2 = 0
Conditions | mass density [kg/m3]
298.15 K | 1098.3
303.15 K | 1095.2
308.15 K | 1092.4
313.15 K | 1089.4
318.15 K | 1086.4
